The assay relates to 817829-284-R-J1-PDC spheroids with HUVEC/MSC, viability. In words: Anticancer human tumor 817829-284-R-J1-PDC patient-derived colon adenocarcinoma cell line growth inhibition [TAK]. The settings on record: for viability, T/C: stronger effect = lower value. From the text:
Combinatorial screen of targeted agents with TAK-243 and ipatasertib in multi-cell type tumor spheroids
A high-throughput screen of multi-cell type tumor spheroids was designed to identify active combinations of targeted small molecules and TAK-243 or ipatasertib. Complex spheroids include a stromal component modeled by human endothelial cells (HUVEC) and fibroblasts modeled by human mesenchymal stem cells (MSCs). The concentration ranges selected for each drug and investigational agent were based upon clinically achievable concentrations if the clinical Cmax of the agent was known.
Compounds. The drugs and investigational agents: TAK-243 (785004), ipatasertib (767898), everolimus (733504), selumetinib (741078), bortezomib (756655), trametinib (758246), ixazomib (758254), vemurafenib (761431), dabrafenib (764134), sapanisertib (764658), alpelisib (765974), and copanlisib (816437), were obtained from the National Cancer Institute (NCI) Developmental Therapeutics Program Chemical Repository. The FDA-approved anticancer drug set is available from the NCI Developmental Therapeutics Program. […] The stock solutions were prepared in dimethyl sulfoxide (DMSO, Sigma-Aldrich, St. Louis, MO, cat. D2650) at 800-fold the tested concentration and stored at -70 degrees C prior to their use. All drugs and investigational agents were tested over a range starting from a high concentration at or near the clinical Cmax and decreasing in half-log increments. If the clinical Cmax for an agent had not been determined, the highest concentration tested was 10 microM.
NCI60 Cell Culture. NCI60 cell lines were obtained from the NCI Developmental Therapeutics Program Tumor Repository. For each lot of cells, the Repository performed Applied Biosystems AmpFLSTR Identifiler testing with PCR amplification to confirm consistency with the published Identifier STR profile for each cell line. Cells were kept in continuous culture for no more than 20 passages. The optimal seeding densities for each of the cell lines at each time point assessed were determined prior to performing the concentration response studies. Briefly, the NCI60 human tumor lines were grown as monolayers in RPMI 1640 medium supplemented with 10% FBS and 2 mmol/L L-glutamine.
An additional 2 lines were from the NCI60 cell line panel including melanomas, MALME-3M and SK-MEL-2. Pooled donor human umbilical vein endothelial cells (HUVEC, Lonza, cat. CC-2519) and human mesenchymal stem cells (hMSC, Lonza, cat. PT-2501) were purchased from Lonza (Walkersville, MD). […]
For the pre-screen, cell seeding densities were determined from a titration spanning the range from 5,000 to 313 cells per well. […]

As usually defined, the IC50 is the point on the concentration scale where inhibition reaches its midpoint. For orientation: viability, T/C means the result in the treated group divided by that in the control group, in per cent.

For part of its entries the source gives two or more results. The list is limited to them. The source may hold further records. The values listed for one entry repeat one measurement in other runs, samples, wells, individuals or studies. Marks such as [2022-09] give the month of the run. Additions like (4×) say how often a value occurs here. Bounds are passed on as bounds.

With `CC(C)(C)c1nc(-c2cccc(NS(=O)(=O)c3c(F)cccc3F)c2F)c(-c2ccnc(N)n2)s1`, the IC50 (compound alone) was > 10 µM and 760 nM.

With `CC(C)CC(NC(=O)C(Cc1ccccc1)NC(=O)c1cnccn1)B(O)O` (centres undefined), the viability, T/C (compound alone 0.01 µM) was 1.01% and 86.8%.

As for `CC(C)NCC(C(=O)N1CCN(c2ncnc3c2C(C)CC3O)CC1)c1ccc(Cl)cc1` (centres undefined), the viability, T/C is 94.2, 105 (2×), 96, 102, 89.7% [2020-02] and 92.1, 97.2, 90.6, 72.3% [2020-03] (compound alone 0.3 µM); 65.7, 78.9, 76, 70, 76.9, 67.4% [2020-02] and 30.6, 30.3, 31.9, 29.1% [2020-03] (compound alone 0.949 µM).

For the origin of these results see PubChem BioAssay AID2060347 (Molecular Pharmacology Branch, DTP, NCI, 2025).
